From the supplement of paper PMC11417369 come the findings set out here.

The list shows a part of the results.

The assay deals with PfAP2-HC AP2 domain (GST-tagged). Description: gcPBM binding intensity (ln(normalized median fluorescence intensity)); higher = stronger DNA binding. In a few lines:
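Binding intensity is the highest Masliner-normalised natural-log median intensity over replicate spots in either probe orientation. To obtain it, GST-tagged P. falciparum DNA-binding domains made in E. coli were incubated for 1 h on an Agilent 4 × 180k array of primer-extended double-stranded 36-bp intergenic genomic probes plus negative controls. Detection used Alexa488 anti-GST antibody with scanning at 488 nm.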
For the sequence “TATTATATCTTTATTATTCATCTAAAATTTGTATTT [TGCATGCA_negctrl_site233]”, the “gcPBM binding intensity (ln)” value stood at 9.67. The figure for “TTGATTTACTATAGATGTACGTAAAATATAAATAAA [XGTACX_site8256]” is 9.47; for “ATAAAAAATAAATATATACATACATACATACATATA [XGTACX_negctrl_site507]” it is 9.81; for “ATAAAACAAAAATATAAACACACATACATTGGTTTT [CACACA_site8809]” it is 10.1.

On to “TTTTCAAAAATATACACACACATAAATATAGGTATA [CACACA_site6506]”, for which the “gcPBM binding intensity (ln)” value is 10.1. For “AATTTAAAAGAAAAAGAAAAATAATAAACAGAAGCA [XGTACX_negctrl_site503]”, the “gcPBM binding intensity (ln)” value is 9.69. Turning to “TGGGAAAATAATATTTATTTTATATATAAATATATA [CACACA_negctrl_site121]”, the “gcPBM binding intensity (ln)” value was determined as 9.3.

As to “AAAATACTAGATAGGGGAAAAAAAAAAAAAAAAAAA [CACACA_negctrl_site1732]”, the “gcPBM binding intensity (ln)” value is 8.84. In the case of “TATTGTAATATTAGCACACATTACCTCACTACAAAT [CACACA_site5419]”, the “gcPBM binding intensity (ln)” value was 9.82. The figure for “AACATGAAAATATATGCATTTGTATATATATATATA [TGCATGCA_negctrl_site16]” is 9.59. For “AATAAAACCCCGAAATCACACATTAAATGAAAAATA [CACACA_site4732]”, the “gcPBM binding intensity (ln)” value was found to be 9.81.

With “AAAGCACCCATGCACACACACAAAGGAAAAGAAAAA [CACACA_site6249]”, the “gcPBM binding intensity (ln)” value came out at 10.3. The figure for “ATAAATGATAAAATTGCATGTGAATGTGAAAATATT [TGCATGCA_site251]” is 9.86; for “TCCATATATTTTAAAAGTACACATAAAAATTATTTA [XGTACX_site8127]” it is 9.26. The figure for “AATGGAAAAATAGGCACACACACATATATACATATA [CACACA_site1298]” is 10.6. The same measure for “TTGTTTTTCTTTGAATGTACTTAATGATTTCCAATT [XGTACX_site2499]”: 9.79; for “AAAAAAAAAAAAGATTGTACAGAATACTTTTAAAAT [XGTACX_site3576]”: 9.43; for “AAGTTAATGAAAAAATGTACCCAGAGTATTTTAAAA [XGTACX_site2997]”: 9.67. Turning to “ATATAAATAAAATATACACACATACTGTTCATTTAA [CACACA_site7880]”, the “gcPBM binding intensity (ln)” value came out at 9.84. The same measure for “TTTTTTTTTTATTTTGCACACTTCTAATTTAGTTCT [CACACA_site5828]”: 9.92; for “CATACGTTCTAATATATACACACCTGGTATTAATTA [CACACA_site2221]”: 9.72. On to “CTATAATGTTTCTTTCAACACACAAAAAATGAACAC [CACACA_site8438]”, for which the “gcPBM binding intensity (ln)” value was found to be 9.75. With “ATTGCGTGATAATAATGTACAAAAAGTAATTTATAT [XGTACX_site8339]”, the “gcPBM binding intensity (ln)” value was determined as 9.73. The same measure for “AATATATAATTTTTAACACACAAAAAAAAAAAAAAT [CACACA_site3581]”: 9.87; for “AAAAAAAAAAAAAAAACACACACATATAATATATTT [CACACA_site8369]”: 10.1. “TCATTCTAAATATAAACACACATAAATATATACATT [CACACA_site3354]”: the “gcPBM binding intensity (ln)” value was determined as 9.65. The same measure for “GGTACGTATTTCAATGCATGTCCATGTACATATAAA [TGCATGCA_site208]”: 9.61; for “TTTTTATTTATATGTATACACACTTTAATTAAAAGT [CACACA_site2525]”: 9.91; for “AATAAAAAAAAATGCACACATATATATATATATATA [CACACA_site2421]”: 9.71.

Take “TGTTATATATAAATTTGTACACATAAATATTTTTAC [XGTACX_site5873]”: the “gcPBM binding intensity (ln)” value amounted to 9.76. The figure for “CAGAATATATTCTATACATGCAATAGGAAATGTAGC [TGCATGCA_site110]” is 9.97. The figure for “AAAAAAAAAAAAAAAAGTACAAAAATATATATGCAT [XGTACX_site8392]” is 9.58; for “TATGCACAGAAACACACACACACAACCAAAAAATAA [CACACA_site5425]” it is 10.5.

In the case of “AAATTTTCTTAAGGTTGTACTTTTTGAAAATAATCT [XGTACX_site4894]”, the “gcPBM binding intensity (ln)” value was 9.22. As to “TTTTTATATATATGTATAAATATTTTTTCTATTTAT [XGTACX_negctrl_site606]”, the “gcPBM binding intensity (ln)” value amounted to 9.54. The same measure for “TGTAGTCTGGAGAAACGTACATAGTATCTGGTAGCT [XGTACX_site2538]”: 9.61.

Regarding “AATGTGTAGGTAAGATAATTTTTGTTTTTTTATTTG [CACACA_negctrl_site424]”, the “gcPBM binding intensity (ln)” value came to 9.86. As to “ATATTTATAATATAGAGTACTTACTAAGTTATGGGT [XGTACX_site5405]”, the “gcPBM binding intensity (ln)” value was 9.7. The figure for “TTTTTTTCTCTCTCTACACACAAGGTTTAATTTAAA [CACACA_site1690]” is 9.75; for “TATAATATATCTGTAACACACAAAAGTTATATACTT [CACACA_site5578]” it is 9.77. For “AACTCACGAGGACACACACACATATATATATATATA [CACACA_site4711]”, the “gcPBM binding intensity (ln)” value is 10.2. The same measure for “ACATACATACATACATACATACATACATACATACAT [XGTACX_negctrl_site315]”: 9.51; for TCATAGGGGTAGAAGGTGCAATAAAAAAGAAGAAAA: 9.46. The same measure for “GAATTTCAACAAAGTAGTACATTTTATAGTAATTGG [XGTACX_site2319]”: 9.48.
